Sequences and labels used below:
T1: S935
T1 sequence (peptide, fluorescein on the N-terminus): SPNLQRHSNSLGPIF

Amino acid sequences for entries named in this document (tags omitted).
UniProt Q5S007: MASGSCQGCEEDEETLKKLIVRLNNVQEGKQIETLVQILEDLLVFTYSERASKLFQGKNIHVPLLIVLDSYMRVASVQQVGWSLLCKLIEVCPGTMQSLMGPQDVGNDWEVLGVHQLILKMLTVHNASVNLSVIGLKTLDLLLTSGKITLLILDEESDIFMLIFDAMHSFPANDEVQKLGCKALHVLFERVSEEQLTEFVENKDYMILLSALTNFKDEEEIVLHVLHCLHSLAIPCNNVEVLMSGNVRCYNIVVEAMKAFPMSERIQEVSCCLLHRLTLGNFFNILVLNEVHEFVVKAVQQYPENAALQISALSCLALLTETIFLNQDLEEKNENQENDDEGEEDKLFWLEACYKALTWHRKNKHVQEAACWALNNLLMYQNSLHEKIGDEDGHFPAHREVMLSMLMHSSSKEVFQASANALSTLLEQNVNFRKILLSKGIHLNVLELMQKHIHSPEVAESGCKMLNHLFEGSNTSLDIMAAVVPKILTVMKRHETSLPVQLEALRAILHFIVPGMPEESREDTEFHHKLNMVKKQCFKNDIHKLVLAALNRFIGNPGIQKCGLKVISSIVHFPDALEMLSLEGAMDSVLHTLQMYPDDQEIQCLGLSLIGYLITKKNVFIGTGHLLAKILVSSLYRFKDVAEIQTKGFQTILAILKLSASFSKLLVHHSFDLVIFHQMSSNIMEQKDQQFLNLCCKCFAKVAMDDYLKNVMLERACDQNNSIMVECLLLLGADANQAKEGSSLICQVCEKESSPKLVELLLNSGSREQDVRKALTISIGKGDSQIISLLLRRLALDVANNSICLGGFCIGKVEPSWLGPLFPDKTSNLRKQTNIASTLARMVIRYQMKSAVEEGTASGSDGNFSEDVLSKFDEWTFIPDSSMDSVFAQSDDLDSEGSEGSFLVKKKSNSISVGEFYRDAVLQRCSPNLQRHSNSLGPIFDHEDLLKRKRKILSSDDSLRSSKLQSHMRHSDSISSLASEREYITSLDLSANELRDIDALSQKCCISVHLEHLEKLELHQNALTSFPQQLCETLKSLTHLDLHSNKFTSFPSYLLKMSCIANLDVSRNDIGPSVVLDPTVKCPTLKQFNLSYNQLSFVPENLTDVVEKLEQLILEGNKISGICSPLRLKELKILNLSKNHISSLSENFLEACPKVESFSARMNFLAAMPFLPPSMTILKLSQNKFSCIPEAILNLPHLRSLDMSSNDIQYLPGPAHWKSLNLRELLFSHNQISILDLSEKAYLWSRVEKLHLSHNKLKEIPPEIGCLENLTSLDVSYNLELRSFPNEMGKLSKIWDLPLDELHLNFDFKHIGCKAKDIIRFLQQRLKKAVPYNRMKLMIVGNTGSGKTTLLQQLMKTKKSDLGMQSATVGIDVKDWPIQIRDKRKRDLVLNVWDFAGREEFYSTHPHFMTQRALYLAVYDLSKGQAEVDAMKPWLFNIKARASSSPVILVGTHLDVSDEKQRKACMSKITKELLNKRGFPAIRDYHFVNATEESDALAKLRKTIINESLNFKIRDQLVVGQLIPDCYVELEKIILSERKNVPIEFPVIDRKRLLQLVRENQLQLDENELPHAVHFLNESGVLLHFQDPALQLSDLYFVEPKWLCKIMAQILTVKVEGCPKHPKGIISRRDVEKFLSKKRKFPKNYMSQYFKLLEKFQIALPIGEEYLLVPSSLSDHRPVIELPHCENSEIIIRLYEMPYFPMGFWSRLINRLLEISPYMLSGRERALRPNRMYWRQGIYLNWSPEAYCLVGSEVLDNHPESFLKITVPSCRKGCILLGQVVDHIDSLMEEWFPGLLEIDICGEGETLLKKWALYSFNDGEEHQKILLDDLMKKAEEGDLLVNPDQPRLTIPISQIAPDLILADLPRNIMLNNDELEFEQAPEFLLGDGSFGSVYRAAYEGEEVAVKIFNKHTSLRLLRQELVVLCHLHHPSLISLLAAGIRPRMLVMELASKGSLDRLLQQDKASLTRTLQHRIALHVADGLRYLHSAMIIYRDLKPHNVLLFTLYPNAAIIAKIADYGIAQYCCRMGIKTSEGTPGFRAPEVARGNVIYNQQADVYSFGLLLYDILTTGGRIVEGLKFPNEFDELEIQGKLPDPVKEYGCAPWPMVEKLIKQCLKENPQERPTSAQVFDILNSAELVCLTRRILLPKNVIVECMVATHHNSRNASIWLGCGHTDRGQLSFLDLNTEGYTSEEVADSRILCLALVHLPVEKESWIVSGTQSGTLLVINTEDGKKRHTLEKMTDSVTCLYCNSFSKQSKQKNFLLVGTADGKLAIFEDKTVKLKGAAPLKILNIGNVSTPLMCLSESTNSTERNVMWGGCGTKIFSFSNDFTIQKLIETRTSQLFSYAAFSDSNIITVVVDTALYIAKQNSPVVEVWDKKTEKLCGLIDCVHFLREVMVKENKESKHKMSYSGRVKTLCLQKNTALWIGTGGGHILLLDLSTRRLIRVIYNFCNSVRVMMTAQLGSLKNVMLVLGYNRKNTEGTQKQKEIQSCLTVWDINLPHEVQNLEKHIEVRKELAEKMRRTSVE

T2: R1441C/pS1444 (R1441C (stands in the printed letters))
T2 construct: LRRK2-derived peptide of the Roc domain with the familial PD mutation R1441C, phosphorylated at S1444; source: synthetic peptide (Peps4LS GmbH)
T2 peptide: fluorescein-LFNIKACAS[pS]SPVILVGT

T3: pS910
T3 sequence (peptide, fluorescein on the N-terminus; phosphoserine at 910): SFLVKKKSNSISVGEFYRD

T4: pS935
T4 sequence (peptide, fluorescein on the N-terminus; phosphoserine at 935): SPNLQRHSNSLGPIF

T5: S910
T5 sequence (peptide, fluorescein on the N-terminus): SFLVKKKSNSISVGEFYRD

T6: S933
T6 sequence (peptide, fluorescein on the N-terminus): RCSPNLQRHSNSLGPIFDH

B1: human 14-3-3 isoform β (recombinant, MBP tag removed) (natural protein, UniProt P31946 1-246, looked up)
chain: MTMDKSELVQKAKLAEQAERYDDMAAAMKAVTEQGHELSNEERNLLSVAYKNVVGARRSSWRVISSIEQKTERNEKKQQMGKEYREKIEAELQDICNDVLELLDKYLIPNATQPESKVFYLKMKGDYFRYLSEVASGDNKQTTVSNSQQAYQEAFEISKKEMQPTHPIRLGLALNFSVFYYEILNSPEKACSLAKTAFDEAIAELDTLNEESYKDSTLIMQLLRDNLTLWTSENQGDEGDAGEGEN
notes: 14-3-3 beta, human; Expressed from pMAL2CX plasmids; also called 14-3-3β; source: E. coli BL21DE3, purified (maltose-agarose, Factor Xa, anion exchange)
B2: human 14-3-3 isoform θ (recombinant, MBP tag removed) (natural protein, UniProt P27348 1-245, looked up)
chain: MEKTELIQKAKLAEQAERYDDMATCMKAVTEQGAELSNEERNLLSVAYKNVVGGRRSAWRVISSIEQKTDTSDKKLQLIKDYREKVESELRSICTTVLELLDKYLIANATNPESKVFYLKMKGDYFRYLAEVACGDDRKQTIDNSQGAYQEAFDISKKEMQPTHPIRLGLALNFSVFYYEILNNPELACTLAKTAFDEAIAELDTLNEDSYKDSTLIMQLLRDNLTLWTSDSAGEECDAAEGAEN
notes: 14-3-3 theta, human; Expressed from pMAL2CX plasmids; also called 14-3-3θ; source: E. coli BL21DE3, purified (maltose-agarose, Factor Xa, anion exchange)
B3: human 14-3-3 isoform γ (recombinant, MBP tag removed) (protein, UniProt P61981 1-247)
chain: MVDREQLVQKARLAEQAERYDDMAAAMKNVTELNEPLSNEERNLLSVAYKNVVGARRSSWRVISSIEQKTSADGNEKKIEMVRAYREKIEKELEAVCQDVLSLLDNYLIKNCSETQYESKVFYLKMKGDYYRYLAEVATGEKRATVVESSEKAYSEAHEISKEHMQPTHPIRLGLALNYSVFYYEIQNAPEQACHLAKTAFDDAIAELDTLNEDSYKDSTLIMQLLRDNLTLWTSDQQDDDGGEGNN
B4: human 14-3-3 isoform η (recombinant, MBP tag removed) (natural protein, UniProt Q04917 1-246, looked up)
chain: MGDREQLLQRARLAEQAERYDDMASAMKAVTELNEPLSNEDRNLLSVAYKNVVGARRSSWRVISSIEQKTMADGNEKKLEKVKAYREKIEKELETVCNDVLSLLDKFLIKNCNDFQYESKVFYLKMKGDYYRYLAEVASGEKKNSVVEASEAAYKEAFEISKEQMQPTHPIRLGLALNFSVFYYEIQNAPEQACLLAKQAFDDAIAELDTLNEDSYKDSTLIMQLLRDNLTLWTSDQQDEEAGEGN
notes: 14-3-3 eta, human; Expressed from pMAL2CX plasmids; also called 14-3-3η; source: E. coli BL21DE3, purified (maltose-agarose, Factor Xa, anion exchange)
B5: human 14-3-3 isoform ζ (recombinant, MBP tag removed) (natural protein, UniProt P63104 1-245, looked up)
chain: MDKNELVQKAKLAEQAERYDDMAACMKSVTEQGAELSNEERNLLSVAYKNVVGARRSSWRVVSSIEQKTEGAEKKQQMAREYREKIETELRDICNDVLSLLEKFLIPNASQAESKVFYLKMKGDYYRYLAEVAAGDDKKGIVDQSQQAYQEAFEISKKEMQPTHPIRLGLALNFSVFYYEILNSPEKACSLAKTAFDEAIAELDTLSEESYKDSTLIMQLLRDNLTLWTSDTQGDEAEAGEGGEN
notes: 14-3-3 zeta, human; Expressed from pMAL2CX plasmids; also called 14-3-3ζ; source: E. coli BL21DE3, purified (maltose-agarose, Factor Xa, anion exchange)
B6: human 14-3-3 isoform ε (recombinant, MBP tag removed) (natural protein, UniProt P62258 1-255, looked up)
chain: MDDREDLVYQAKLAEQAERYDEMVESMKKVAGMDVELTVEERNLLSVAYKNVIGARRASWRIISSIEQKEENKGGEDKLKMIREYRQMVETELKLICCDILDVLDKHLIPAANTGESKVFYYKMKGDYHRYLAEFATGNDRKEAAENSLVAYKAASDIAMTELPPTHPIRLGLALNFSVFYYEILNSPDRACRLAKAAFDDAIAELDTLSEESYKDSTLIMQLLRDNLTLWTSDMQGDGEEQNKEALQDVEDENQ
notes: 14-3-3 epsilon, human; Expressed from pMAL2CX plasmids; also called 14-3-3ε; source: E. coli BL21DE3, purified (maltose-agarose, Factor Xa, anion exchange)
B7: FLAG-HA-14-3-3 θ (human) (protein, UniProt P27348 1-245)
chain: B2 chain
B8: FLAG-HA-14-3-3 γ (human) (protein, UniProt P61981 1-247)
chain: B3 chain
B9: FLAG-HA-14-3-3 η (human) (protein, UniProt Q04917 1-246)
chain: B4 chain

These are yes or no findings as the source states them, for the method shown. For some of these results: In cells and extracts the contact can be indirect. Some binding calls cover weakened binding; strength is not graded here. For some of these results: Where a sequence is shown, tags or fusion partners need not be part of it. Square brackets hold non-standard residues; d marks the D form. Ends that are not written are not given here. fluorescein = N-terminal fluorescein label; pS = N[C@@H](COP(=O)(O)O)C(=O)O

One test deals with T1, S935. Description: fluorescence polarisation; direct binding; dilution series of 14-3-3 isoform (at least 5 μM down to picomolar) mixed with 1 nM fluorescein-labelled peptide; 20 mM MOPS pH 7, 150 mM NaCl, 0.005% CHAPS; 384-well plates; both purified. In general terms: Fluorescence polarisation rises when a labelled molecule tumbles more slowly, as on binding a larger partner.
Take B1: the binding result was “no binding (tested: at least 5 μM)”.

B2: the binding entry is listed as “no binding (tested: at least 5 μM)”.

Turning to B3, the binding result was “no binding (tested: at least 5 μM)”.

B4: the binding result was “no binding (tested: at least 5 μM)”.

For B5, the binding result is recorded as “no binding (tested: at least 5 μM)”.

In the case of B6, the binding result was “no binding (tested: at least 5 μM)”.

A further test concerns the target T2, R1441C/pS1444. Described as above.
Regarding B1, the binding result is “binds weakly”.

For the molecule B2, the binding result is on record as “binds weakly”.

As for B4, the binding result is given as “binds weakly”.

Regarding B5, the binding result is listed as “binds weakly”.

For B6, the binding entry is “binds weakly”.

The next test concerns the target T3, pS910. The description is as above.
Take B6: the binding entry is “no binding (tested: at least 5 μM)”.

In a further test the target is T4, pS935. The test is described as above.
Consider B1, for which the binding entry is on record as “no binding (tested: at least 5 μM)”.

As for B2, the binding entry is “no binding (tested: at least 5 μM)”.

For B3, the binding result is listed as “no binding (tested: at least 5 μM)”.

For the molecule B4, the binding result is reported as “no binding (tested: at least 5 μM)”.

B5: the binding entry is given as “no binding (tested: at least 5 μM)”.

For B6, the binding result is listed as “no binding (tested: at least 5 μM)”.

A further test has as its target T5, S910. Described as above.
In the case of B6, the binding result is reported as “no binding (tested: at least 5 μM)”.

The target of a further test is T6, S933. The description is as above.
On to B3, for which the binding entry is on record as “no binding (tested: at least 5 μM)”.

Another test concerns the target FLAG-Strep-Strep-tagged full-length LRRK2 wild type (UniProt Q5S007). Kind of test: pull-down; FSS-LRRK2 co-expressed with HA-FLAG-14-3-3 isoform in HEK293T; LRRK2 captured from the lysate on Strep-Tactin Superflow; washes with 0.5 mM GDP and with 850 mM NaCl, 1% Tween 20; anti-FLAG Western blot.
For “FLAG-HA-14-3-3 β (human) (from UniProt P31946 1-246)”, the binding entry is given as “binds”.

Consider “FLAG-HA-14-3-3 ε (human) (from UniProt P62258 1-255)”, for which the binding result is on record as “binds”.

With B7, the binding entry is listed as “binds”.

For B8, the binding entry was “binds”.

For the molecule B9, the binding result is listed as “binds”.

The values above are taken from PMC7155755, “Binding of the Human 14-3-3 Isoforms to Distinct Sites in the Leucine-Rich Repeat Kinase 2” (Frontiers in Neuroscience, 2020).
